Results as given in the GPR68 mutational scans of Howard et al. (2025).
The least precise scores are not listed. Not listed are two conditions whose scores span a narrow range. Names with del lack the residues named; names with ins carry added residues between the positions named. For part of these data: The concentration of ogerin is not given here.

B1: GPR68, Q15743 (parent)
chain: MGNITADNSSMSCTIDHTIHQTLAPVVYVTVLVVGFPANCLSLYFGYLQIKARNELGVYLCNLTVADLFYICSLPFWLQYVLQHDNWSHGDLSCQVCGILLYENIYISVGFLCCISVDRYLAVAHPFRFHQFRTLKAAVGVSVVIWAKELLTSIYFLMHEEVIEDENQHRVCFEHYPIQAWQRAINYYRFLVGFLFPICLLLASYQGILRAVRRSHGTQKSRKDQIQRLVLSTVVIFLACFLPYHVLLLVRSVWEASCDFAKGVFNAYHFSLLLTSFNCVADPVLYCFVSETTHRDLARLRGACLAFLTCSRTGRAREAYPLGAPEASGKSGAQGEEPELLTKLHPAFQTPNSPGSGGFPTGRLA

Tests used:
[1] = variants of: B1; assay: cAMP reporter score (Enrich2 score, wild type = 0); higher = more signal; HEK293T, FACS bins
[2] = variants of: B1; assay: surface expression score (Enrich2 score, wild type = 0); higher = more signal; HEK293T, FACS bins

Variant | cAMP reporter score ([1]; pH 5.5) | cAMP reporter score ([1]; pH 6) | cAMP reporter score ([1]; pH 6, modulator: ogerin) | cAMP reporter score ([1]; pH 6.5, modulator: ogerin) | surface expression score [2]
L92_S93del | -1.1 | -0.058 | -0.996 | -0.64 | -1.96
S93_C94insGS | -1.83 | -1.12 | -1.44 | -0.035 | -1.7
D91_L92del | -1.96 | -1.11 | -1.64 | -1.21 | -1.13
D85_N86insG | -1.5 | -1.42 | -1.84 | -0.82 | 0.455
V81T | -0.925 | -1.09 | -1.66 | -1.12 | 0.476
V81I | -0.916 | -1.41 | -0.892 | -1.04 | 0.426
V81K | -0.327 | -0.31 | -0.219 | 0.131 | 1.91
V81S | -0.366 | -1.02 | -0.83 | -0.78 | 1.13
V81C | -1.05 | -0.174 | -0.263 | -0.54 | 1.84
V81N | -1.62 | -1.04 | -1.85 | -0.988 | -1.47
V81A | 0.375 | -0.363 | -0.126 | -0.56 | 0.464
V81G | -1.14 | -1.16 | -1.33 | -1.09 | 0.571
V81Y | 0.178 | – | 0.303 | 2.29 | 0.317
V81F | 0.066 | -0.021 | 0.203 | 0.816 | -0.312
V81D | -0.256 | -0.032 | -0.859 | -0.697 | 0.503
V81P | -1.28 | -0.854 | -1.71 | -0.277 | -1.19
V81M | -0.842 | -1.01 | -1.41 | -1.63 | 1.06
V81E | -0.189 | -1.76 | – | – | 1.26
V81H | 1.62 | 3.85 | 1.27 | 3.26 | 0.312
V81Q | -0.573 | -0.181 | – | -0.46 | 1.53
V81L | -1.32 | -0.95 | -1.22 | -0.756 | -0.374

Variant | cAMP reporter score ([1]; pH 5.5) | cAMP reporter score ([1]; pH 6) | cAMP reporter score ([1]; pH 6, modulator: ogerin) | cAMP reporter score ([1]; pH 6.5, modulator: ogerin) | surface expression score [2]
V81W | -1.63 | -0.846 | -0.978 | -0.596 | 0.635
D91P | -0.534 | -0.601 | -0.363 | 0.724 | -1.55
D91R | 0.501 | 0.829 | 0.16 | 1.15 | 1.15
D91W | 0.518 | – | 0.614 | 2.2 | 0.838
D91M | 0.121 | -1.31 | 0.246 | 0.08 | -0.659
D91I | 1.43 | 4.5 | 1.77 | 2.38 | -0.599
D91S | 0.848 | 0.032 | 0.383 | 0.186 | 1.96
D91T | 1.34 | 0.498 | 0.663 | -0.47 | 1.77
D91K | 0.922 | 1.99 | 1.2 | 2.54 | 0.817
D91Q | 0.296 | 1.33 | 0.655 | 0.381 | -0.024
D91Y | 0.097 | -0.673 | 0.157 | -0.337 | -0.311
D91H | -0.05 | 1.22 | -0.456 | -0.67 | –
D91N | -0.158 | 0.512 | -0.439 | 0.587 | 0.088
D91L | -0.374 | 2.69 | 0.904 | – | –
D91A | 0.105 | -0.154 | 0.326 | -0.615 | 0.439
D91F | 0.789 | -0.391 | 0.997 | 0.034 | -0.061
D91V | 0.491 | 0.223 | -0.174 | 0.298 | -0.168
D91E | 0.274 | 1.06 | 0.369 | 0.084 | -0.255
D91G | 0.915 | 1.76 | 1.43 | 2.8 | 0.623
D91C | -0.376 | – | -0.862 | 0.27 | -0.189
L92del | -1.42 | -0.984 | -1.45 | -1.31 | -1.25

Variant | cAMP reporter score ([1]; pH 5.5) | cAMP reporter score ([1]; pH 6) | cAMP reporter score ([1]; pH 6, modulator: ogerin) | cAMP reporter score ([1]; pH 6.5, modulator: ogerin) | surface expression score [2]
H89_G90insGS | -1.08 | -0.158 | -0.597 | -0.113 | -1.32
D85del | -0.746 | -1.01 | -0.638 | -0.943 | -0.256
C94del | -1.38 | -0.847 | -1.39 | -1.28 | -2.04
Y80_V81insG | -1.41 | -0.83 | -1.91 | -1.7 | -1.16
H84_D85insG | -1.18 | -1.94 | -1.57 | -1.4 | 1.86
D85_N86del | -1.13 | -0.345 | -1.45 | -1.17 | -1.52
N86_S88del | -1.88 | -1.12 | -1.56 | -1.07 | -1.49
G90_D91insG | -2.35 | – | -0.877 | -0.378 | -1.21
Q95D | 0.406 | – | -0.85 | -0.846 | –
Q95C | 0.08 | 0.484 | 0.283 | 1.99 | -0.652
Q95I | -0.336 | 2.44 | 0.328 | 2.93 | -0.745
Q95E | 0.422 | -1.11 | -0.257 | -0.623 | -0.732
Q95G | 0.813 | 2.84 | 0.907 | 1.19 | -1.31
Q95A | 1.11 | – | – | 2.98 | 0.279
Q95F | 0.136 | 4.71 | -0.438 | 3.86 | -0.389
Q95H | 1.63 | – | 2.03 | 3.17 | 1.7
H84_D85insGS | -1.91 | -1.44 | -1.44 | -1.36 | -0.962
D91_L92insGSG | -1.01 | -0.377 | -0.674 | -1.06 | -0.934
L82_Q83insGS | -1.65 | -1.58 | -1.82 | -1.03 | 0.907
Q83_H84insG | -1.84 | -0.889 | -1.3 | -0.455 | 0.385
L82del | -1.44 | -0.627 | -1.4 | -0.947 | 0.848
